Peptide text beside a SMILES is read from it. * marks the point of attachment. Cbz = O=C(OCc1ccccc1)*
These compounds were tested on RAW 264.7 cells (assay: Mtphagy dye / lysotracker mitophagy assay). Conditions: 5 μM, 16 hr.

Row | Compound | mitophagy (percent mitochondria positive lysosomes) compared to DMSO
1 | N#CC(C#N)=NNc1cccc(Cl)c1 [CCCP, Carbonyl cyanide m-chlorophenylhydrazone] | significant increases
2 | CC(C)C[C@@H](C=O)NC(=O)[C@H](CC(C)C)NC(=O)[C@H](CC(C)C)NC(=O)OCc1ccccc1 [MG-132] (Cbz-Leu-Leu-Leu-aldehyde) | little to no effect
3 | CO[C@H]1C[C@@H]2CC[C@@H](C)[C@@](O)(O2)C(=O)C(=O)N2CCCC[C@H]2C(=O)O[C@H]([C@H](C)C[C@@H]2CC[C@@H](O)[C@H](OC)C2)CC(=O)[C@H](C)/C=C(\C)[C@@H](O)[C@@H](OC)C(=O)[C@H](C)C[C@H](C)/C=C/C=C/C=C/1C [RAPA, rapamycin] | significant increases
4 | NNC(=O)c1ccncc1 [isoniazid] | little to no effect

What follows are compounds tested against T1, proteasomes (Mus musculus, UniProt O55234+P70195+Q60692) (assay: Ub-R-GFP reporter assay of proteasomal activity in cells). Conditions: RAW 264.7 cells, 16 hours.
T1 sequence (O55234 60-264): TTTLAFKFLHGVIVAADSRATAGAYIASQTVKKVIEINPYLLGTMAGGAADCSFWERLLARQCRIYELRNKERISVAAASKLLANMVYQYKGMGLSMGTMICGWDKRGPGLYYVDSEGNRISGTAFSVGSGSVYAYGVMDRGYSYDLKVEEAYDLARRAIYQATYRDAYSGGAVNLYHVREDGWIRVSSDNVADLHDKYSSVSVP
T1 sequence (Q60692 1-238): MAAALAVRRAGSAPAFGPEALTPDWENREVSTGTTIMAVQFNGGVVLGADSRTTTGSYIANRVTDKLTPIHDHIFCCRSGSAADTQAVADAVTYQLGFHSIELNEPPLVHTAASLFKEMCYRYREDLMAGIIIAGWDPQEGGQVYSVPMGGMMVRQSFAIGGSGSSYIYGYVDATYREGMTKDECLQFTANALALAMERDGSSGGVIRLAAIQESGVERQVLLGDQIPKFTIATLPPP
T1 sequence (P70195 44-277): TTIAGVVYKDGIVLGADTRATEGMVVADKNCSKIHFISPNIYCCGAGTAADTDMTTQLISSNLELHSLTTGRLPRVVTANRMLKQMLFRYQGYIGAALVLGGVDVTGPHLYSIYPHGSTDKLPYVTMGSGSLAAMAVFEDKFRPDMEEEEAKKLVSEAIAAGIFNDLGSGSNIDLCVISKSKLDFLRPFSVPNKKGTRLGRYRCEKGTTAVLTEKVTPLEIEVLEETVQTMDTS
Type: cell-based, murine

Row | Compound | proteasome inhibition in cellular Ub-R-GFP assay (in words)
5 | C=C(NC(=O)C(=C)NC(=O)c1ccc2c(n1)-c1coc(n1)C(=C)NC(=O)C(=C)NC(=O)c1nc(oc1C)C(=C)NC(=O)C(C(C)(C)O)NC(=O)C(=C)NC(=O)c1nc(oc1C)/C(=C/C)NC(=O)C(C(C)O)NC(=O)c1csc-2n1)C(N)=O (stereo not drawn) [BER, berninamycin] | no detectable activity
6 | thiocillin III [TCIII] | no detectable activity

The compounds below were run on RAW 264.7 cells (assay: CellTiter Glo cell viability). Conditions: not given.
Type: cell-based

Row | Compound | cytotoxicity (CellTiter Glo)
7 | C=C(NC(=O)C(=C)NC(=O)c1csc(-c2ccc3c(n2)-c2csc(n2)-c2csc(n2)C2C(C)CC(O)N2C(=O)C(Cc2ccc(O)cc2)N=C(O)C2CSC(=N2)C(Cc2ccccc2)N=C(O)c2csc(n2)C(CC(N)=O)N=C(O)c2nc-3oc2C)n1)C(=O)O (stereo not drawn) [GE, GE37468] | Neither GE nor NOS, both of which exhibited anti-proteasome activity, proved cytotoxic
8 | C=C(NC(=O)c1csc(-c2nc3c(cc2O)-c2nc(cs2)C(=O)NC(C(C)O)C(=O)N/C(=C\C)c2nc(cs2)C(=O)NC2CC(O)C(=O)OCc4cccc5[nH]c(c(C)c45)C(=O)SCC(NC(=O)c4csc2n4)c2nc-3cs2)n1)C(N)=O (stereo not drawn) [NOS, nosiheptide] | Neither GE nor NOS, both of which exhibited anti-proteasome activity, proved cytotoxic
9 | C=C(NC(=O)C(=C)NC(=O)c1csc(C2=N[C@@H]3c4csc(n4)[C@H]4NC(=O)c5csc(n5)[C@H]([C@](C)(O)[C@@H](C)O)NC(=O)[C@H]5CSC(=N5)/C(=C/C)NC(=O)[C@H]([C@@H](C)O)NC(=O)c5csc(n5)[C@]3(CC2)NC(=O)[C@H](C)NC(=O)C(=C)NC(=O)[C@H](C)NC(=O)[C@H]([C@@H](C)CC)N[C@@H]2C=Cc3c([C@H](C)O)cc(nc3[C@H]2O)C(=O)O[C@@H]4C)n1)C(N)=O [TSR, thiostrepton] | displayed cytotoxicity
